These are yes or no findings as the source states them, for the method shown. In cells and extracts the contact can be indirect. Some entries that bind do so weakly or less than the wild type. For part of these data: Tags and fused reporters may be left off the sequences shown.
T1: Aminoacyl tRNA synthase complex-interacting multifunctional protein 1 (endogenous, canonical) (human (endogenous in HEK 293T and HCT-8)) (UniProt Q12904)
T1 sequence: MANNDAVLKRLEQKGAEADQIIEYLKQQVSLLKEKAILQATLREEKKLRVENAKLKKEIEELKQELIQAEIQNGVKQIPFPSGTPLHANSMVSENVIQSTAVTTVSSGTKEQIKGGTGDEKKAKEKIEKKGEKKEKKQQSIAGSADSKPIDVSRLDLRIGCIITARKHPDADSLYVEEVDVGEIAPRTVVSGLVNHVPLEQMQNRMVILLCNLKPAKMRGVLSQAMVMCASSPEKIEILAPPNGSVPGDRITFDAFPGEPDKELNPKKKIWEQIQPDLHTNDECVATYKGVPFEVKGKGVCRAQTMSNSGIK

The chains behind the UniProt entries cited, without tags or fusion partners.
UniProt P07814: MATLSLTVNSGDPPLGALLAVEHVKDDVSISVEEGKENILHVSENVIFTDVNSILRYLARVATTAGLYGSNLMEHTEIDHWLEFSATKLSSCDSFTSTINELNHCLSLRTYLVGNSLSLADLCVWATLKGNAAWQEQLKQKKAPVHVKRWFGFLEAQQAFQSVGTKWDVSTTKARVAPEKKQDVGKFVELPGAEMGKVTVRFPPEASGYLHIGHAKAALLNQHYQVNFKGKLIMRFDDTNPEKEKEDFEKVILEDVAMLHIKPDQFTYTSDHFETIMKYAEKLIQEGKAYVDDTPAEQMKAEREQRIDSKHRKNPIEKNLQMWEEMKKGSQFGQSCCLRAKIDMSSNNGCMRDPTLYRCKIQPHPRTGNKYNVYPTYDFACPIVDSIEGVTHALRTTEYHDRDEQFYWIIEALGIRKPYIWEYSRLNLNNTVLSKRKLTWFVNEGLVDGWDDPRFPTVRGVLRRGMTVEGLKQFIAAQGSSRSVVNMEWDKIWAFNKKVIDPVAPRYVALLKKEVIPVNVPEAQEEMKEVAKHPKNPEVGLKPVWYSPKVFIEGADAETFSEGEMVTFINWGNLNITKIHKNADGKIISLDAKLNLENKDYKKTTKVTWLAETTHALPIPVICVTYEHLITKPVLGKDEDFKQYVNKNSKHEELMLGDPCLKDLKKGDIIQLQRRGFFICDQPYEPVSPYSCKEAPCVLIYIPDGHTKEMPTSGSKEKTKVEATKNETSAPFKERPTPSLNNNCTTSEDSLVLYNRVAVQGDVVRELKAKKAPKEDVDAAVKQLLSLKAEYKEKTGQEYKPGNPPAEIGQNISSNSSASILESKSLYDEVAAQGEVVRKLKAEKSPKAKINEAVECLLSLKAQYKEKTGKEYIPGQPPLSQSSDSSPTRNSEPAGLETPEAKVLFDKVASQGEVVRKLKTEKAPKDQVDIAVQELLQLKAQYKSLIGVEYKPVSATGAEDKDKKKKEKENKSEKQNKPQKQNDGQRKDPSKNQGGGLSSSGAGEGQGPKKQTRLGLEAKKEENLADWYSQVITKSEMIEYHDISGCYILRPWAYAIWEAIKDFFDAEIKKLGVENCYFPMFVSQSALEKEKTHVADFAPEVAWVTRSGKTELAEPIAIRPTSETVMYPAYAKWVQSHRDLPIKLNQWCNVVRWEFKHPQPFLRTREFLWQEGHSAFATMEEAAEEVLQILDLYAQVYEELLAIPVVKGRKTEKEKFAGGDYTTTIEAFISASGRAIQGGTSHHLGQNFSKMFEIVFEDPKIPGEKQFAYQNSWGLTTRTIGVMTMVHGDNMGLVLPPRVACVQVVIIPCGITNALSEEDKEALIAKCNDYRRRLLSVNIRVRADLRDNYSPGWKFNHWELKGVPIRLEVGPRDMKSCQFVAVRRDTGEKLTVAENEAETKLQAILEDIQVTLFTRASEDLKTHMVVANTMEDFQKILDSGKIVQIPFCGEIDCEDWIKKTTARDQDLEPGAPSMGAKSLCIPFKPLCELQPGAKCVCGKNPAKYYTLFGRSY
UniProt Q15046: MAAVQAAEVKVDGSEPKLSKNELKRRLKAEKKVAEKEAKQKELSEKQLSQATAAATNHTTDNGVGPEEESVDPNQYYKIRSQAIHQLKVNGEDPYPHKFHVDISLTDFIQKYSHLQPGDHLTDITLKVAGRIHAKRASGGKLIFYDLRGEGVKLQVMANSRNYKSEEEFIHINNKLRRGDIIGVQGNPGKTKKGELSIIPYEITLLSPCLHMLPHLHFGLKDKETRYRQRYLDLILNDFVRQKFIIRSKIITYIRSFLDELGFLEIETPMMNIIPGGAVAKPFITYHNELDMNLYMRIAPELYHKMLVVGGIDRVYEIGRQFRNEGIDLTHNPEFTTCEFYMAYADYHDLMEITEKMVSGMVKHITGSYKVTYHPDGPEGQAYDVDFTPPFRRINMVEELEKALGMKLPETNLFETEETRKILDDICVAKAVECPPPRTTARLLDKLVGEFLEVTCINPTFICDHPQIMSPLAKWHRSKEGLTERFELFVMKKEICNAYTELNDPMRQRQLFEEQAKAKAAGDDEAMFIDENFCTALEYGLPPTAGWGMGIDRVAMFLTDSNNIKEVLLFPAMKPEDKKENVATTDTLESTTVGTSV

T2: S/FLAG/SBP tagged AIMP1 (UniProt Q12904)
T2 sequence: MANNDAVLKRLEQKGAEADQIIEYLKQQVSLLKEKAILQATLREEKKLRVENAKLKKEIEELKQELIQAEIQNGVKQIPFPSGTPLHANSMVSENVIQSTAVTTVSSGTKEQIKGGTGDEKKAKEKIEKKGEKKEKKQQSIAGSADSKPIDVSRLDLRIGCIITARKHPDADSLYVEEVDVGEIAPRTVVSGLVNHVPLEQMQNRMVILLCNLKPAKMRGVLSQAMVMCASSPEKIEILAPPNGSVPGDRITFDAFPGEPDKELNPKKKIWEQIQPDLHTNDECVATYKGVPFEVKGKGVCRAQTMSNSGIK

T3: S/FLAG/SBP tagged AIMP2 (UniProt Q13155)
T3 sequence: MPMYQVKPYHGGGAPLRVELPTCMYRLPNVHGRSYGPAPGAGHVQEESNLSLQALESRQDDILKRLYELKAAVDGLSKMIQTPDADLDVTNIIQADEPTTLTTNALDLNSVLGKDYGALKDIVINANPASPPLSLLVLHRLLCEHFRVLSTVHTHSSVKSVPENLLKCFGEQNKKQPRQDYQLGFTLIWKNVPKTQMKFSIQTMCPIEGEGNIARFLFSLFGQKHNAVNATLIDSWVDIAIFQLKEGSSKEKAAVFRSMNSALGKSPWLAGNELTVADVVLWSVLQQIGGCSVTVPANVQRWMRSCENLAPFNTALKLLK


Key:
[1] = molecular target: T1, Aminoacyl tRNA synthase complex-interacting multifunctional protein 1 (endogenous, canonical) (human (endogenous in HEK 293T and HCT-8)); experiment: co-IP; endogenous proteins; 500 μg lysate of HEK 293T and HCT-8 cells in NETN buffer, primary antibody 2 h at 4 °C, protein A/G PLUS-Agarose 12 h, immunoblot; IgG as control
[2] = molecular target: Bifunctional aminoacyl-tRNA synthetase (glutamyl-prolyl-tRNA synthetase) (human (endogenous in HEK 293T and HCT-8)) (UniProt P07814); experiment: as above
[3] = molecular target: T2, S/FLAG/SBP tagged AIMP1; experiment: pull-down; streptavidin pull down (SA pull down) of S/FLAG/SBP-tagged bait from lysates of transfected HEK 293T and HCT-8 cells in NETN buffer, eluate immunoblotted for endogenous proteins; mock vector as control
[4] = molecular target: T3, S/FLAG/SBP tagged AIMP2; experiment: as above
[5] = molecular target: Lysyl-tRNA synthetase (endogenous) (human (endogenous in HEK 293T and HCT-8)), Q15046; experiment: co-IP; endogenous proteins; 500 μg lysate of HEK 293T and HCT-8 cells in NETN buffer, primary antibody 2 h at 4 °C, protein A/G PLUS-Agarose 12 h, immunoblot; IgG as control; settings: remark: other sources report otherwise
[6] = molecular target: S/FLAG/SBP tagged KARS, Q15046; experiment: pull-down; streptavidin pull down (SA pull down) of S/FLAG/SBP-tagged bait from lysates of transfected HEK 293T and HCT-8 cells in NETN buffer, eluate immunoblotted for endogenous proteins; mock vector as control; settings: remark: other sources report otherwise
[7] = molecular target: S/FLAG/SBP tagged KARS (UniProt Q15046); experiment: as above

| binding [1] | binding [2] | binding [3] | binding [4] | binding [5] | binding [6] | binding [7] | Binder |
| --- | --- | --- | --- | --- | --- | --- | --- |
| binds | binds | binds | binds | – | – | – | Isoform 1 of Probable threonyl-tRNA synthetase 2 (enzyme, UniProt A2RTX5 1-802) MAAEALAAEAVASRLERQEEDIRWLWSEVERLRDEQLNAPYSCQAEGPCLTREVAQLRAENCDLRHRLCSLRLCLAEERSRQATLESAELEAAQEAGAQPPPSQSQDKDMKKKKMKESEADSEVKHQPIFIKERLKLFEILKKDHQLLLAIYGKKGDTSNIITVRVADGQTVQGEVWKTTPYQVAAEISQELAESTVIAKVNGELWDLDRPLEGDSSLELLTFDNEEAQAVYWHSSAHILGEAMELYYGGHLCYGPPIENGFYYDMFIEDRAVSSTELSALENICKAIIKEKQPFERLEVSKEILLEMFKYNKFKCRILNEKVNTATTTVYRCGPLIDLCKGPHVRHTGKIKTIKIFKNSSTYWEGNPEMETLQRIYGISFPDNKMMRDWEKFQEEAKNRDHRKIGKEQELFFFHDLSPGSCFFLPRGAFIYNTLTDFIREEYHKRDFTEVLSPNMYNSKLWEASGHWQHYSENMFTFEIEKDTFALKPMNCPGHCLMFAHRPRSWREMPIRFADFGVLHRNELSGTLSGLTRVRRFQQDDAHIFCTVEQIEEEIKGCLQFLQSVYSTFGFSFQLNLSTRPENFLGEIEMWNEAEKQLQNSLMDFGEPWKMNPGDGAFYGPKIDIKIKDAIGRYHQCATIQLDFQLPIRFNLTYVSKDGDDKKRPVIIHRAILGSVERMIAILSENYGGKWPFWLSPRQVMVIPVGPTCEKYALQVSSEFFEEGFMADVDLDHSCTLNKKIRNAQLAQYNFILVVGEKEKIDNAVNVRTRDNKIHGEILVTSAIDKLKNLRKTRTLNAEEAF |
| – | – | – | – | binds | binds | – | Isoform 1 of Probable threonyl-tRNA synthetase 2, A2RTX5 1-802 (enzyme) MAAEALAAEAVASRLERQEEDIRWLWSEVERLRDEQLNAPYSCQAEGPCLTREVAQLRAENCDLRHRLCSLRLCLAEERSRQATLESAELEAAQEAGAQPPPSQSQDKDMKKKKMKESEADSEVKHQPIFIKERLKLFEILKKDHQLLLAIYGKKGDTSNIITVRVADGQTVQGEVWKTTPYQVAAEISQELAESTVIAKVNGELWDLDRPLEGDSSLELLTFDNEEAQAVYWHSSAHILGEAMELYYGGHLCYGPPIENGFYYDMFIEDRAVSSTELSALENICKAIIKEKQPFERLEVSKEILLEMFKYNKFKCRILNEKVNTATTTVYRCGPLIDLCKGPHVRHTGKIKTIKIFKNSSTYWEGNPEMETLQRIYGISFPDNKMMRDWEKFQEEAKNRDHRKIGKEQELFFFHDLSPGSCFFLPRGAFIYNTLTDFIREEYHKRDFTEVLSPNMYNSKLWEASGHWQHYSENMFTFEIEKDTFALKPMNCPGHCLMFAHRPRSWREMPIRFADFGVLHRNELSGTLSGLTRVRRFQQDDAHIFCTVEQIEEEIKGCLQFLQSVYSTFGFSFQLNLSTRPENFLGEIEMWNEAEKQLQNSLMDFGEPWKMNPGDGAFYGPKIDIKIKDAIGRYHQCATIQLDFQLPIRFNLTYVSKDGDDKKRPVIIHRAILGSVERMIAILSENYGGKWPFWLSPRQVMVIPVGPTCEKYALQVSSEFFEEGFMADVDLDHSCTLNKKIRNAQLAQYNFILVVGEKEKIDNAVNVRTRDNKIHGEILVTSAIDKLKNLRKTRTLNAEEAF |
| – | – | binds weakly | binds weakly | – | – | binds weakly | threonyl-tRNA synthetase (enzyme, UniProt P26639 1-723) MFEEKASSPSGKMGGEEKPIGAGEEKQKEGGKKKNKEGSGDGGRAELNPWPEYIYTRLEMYNILKAEHDSILAEKAEKDSKPIKVTLPDGKQVDAESWKTTPYQIACGISQGLADNTVIAKVNNVVWDLDRPLEEDCTLELLKFEDEEAQAVYWHSSAHIMGEAMERVYGGCLCYGPPIENGFYYDMYLEEGGVSSNDFSSLEALCKKIIKEKQAFERLEVKKETLLAMFKYNKFKCRILNEKVNTPTTTVYRCGPLIDLCRGPHVRHTGKIKALKIHKNSSTYWEGKADMETLQRIYGISFPDPKMLKEWEKFQEEAKNRDHRKIGRDQELYFFHELSPGSCFFLPKGAYIYNALIEFIRSEYRKRGFQEVVTPNIFNSRLWMTSGHWQHYSENMFSFEVEKELFALKPMNCPGHCLMFDHRPRSWRELPLRLADFGVLHRNELSGALTGLTRVRRFQQDDAHIFCAMEQIEDEIKGCLDFLRTVYSVFGFSFKLNLSTRPEKFLGDIEVWDQAEKQLENSLNEFGEKWELNSGDGAFYGPKIDIQIKDAIGRYHQCATIQLDFQLPIRFNLTYVSHDGDDKKRPVIVHRAILGSVERMIAILTENYGGKWPFWLSPRQVMVVPVGPTCDEYAQKVRQQFHDAKFMADIDLDPGCTLNKKIRNAQLAQYNFILVVGEKEKISGTVNIRTRDNKVHGERTISETIERLQQLKEFRSKQAEEEF |

Source: article PMC3846882
